Test results: PMC12820563
Some of the results follow. The list includes weakly bound sequences.

Biological target: T1, MBP-FoxP3dN (UniProt Q99JB6)
T1 sequence: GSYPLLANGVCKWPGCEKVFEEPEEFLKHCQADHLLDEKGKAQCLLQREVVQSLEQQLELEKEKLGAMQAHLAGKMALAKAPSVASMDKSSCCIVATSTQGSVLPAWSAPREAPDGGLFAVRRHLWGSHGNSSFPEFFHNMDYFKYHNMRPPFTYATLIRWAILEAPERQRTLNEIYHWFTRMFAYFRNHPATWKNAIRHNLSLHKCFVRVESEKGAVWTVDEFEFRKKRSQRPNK
Experiment: PD-seq (MBP pull-down with sequencing)
Conditions: 20 mM Tris-HCl pH 7.5, 100 mM NaCl, 1.5 mM MgCl2, 0.4 uM protein, 0.1 uM dsDNA library, 30 min, room temperature, amylose pull-down; high values mean tight binding; double strand, one strand shown

Sequence | binding signal (RPM ratio (pull-down/input))
GATGATTGTTCTCCCAGCTGATGAATTTCTCTGCTCGAGTAAACAAATTTTCCTAATCTTTCTGTTCAAGCGCCATCTAC | 0.231
GATGATTGTTCTCCCAGCTGATGAATTCATGAGATCGAGTAAACAAATTTTCCTAATCTTTCTGTTCAAGCGCCATCTAC | 0.253
GATGATTGTTCTCCCAGCTGATGAATTTAAAAACTCGAGTAAACAAATTTTCCTAATCTTTCTGTTCAAGCGCCATCTAC | 0.194
GATGATTGTTCTCCCAGCTGATGAATTACAAAGATCGAGTAAACAAATTTTCCTAATCTTTCTGTTCAAGCGCCATCTAC | 0.335
GATGATTGTTCTCCCAGCTGATGAATTTCTTCAGTCGAGTAAACAAATTTTCCTAATCTTTCTGTTCAAGCGCCATCTAC | 0.178
GATGATTGTTCTCCCAGCTGATGAATTAGTAACCTCGAGTAAACAAATTTTCCTAATCTTTCTGTTCAAGCGCCATCTAC | 0.688
GATGATTGTTCTCCCAGCTGATGAATTAGTGGGGTCGAGTAAACAAATTTTCCTAATCTTTCTGTTCAAGCGCCATCTAC | 1.38
GATGATTGTTCTCCCAGCTGATGAATTTGATCGCTCGAGTAAACAAATTTTCCTAATCTTTCTGTTCAAGCGCCATCTAC | 0.351
GATGATTGTTCTCCCAGCTGATGAATTACTGCGTTCGAGTAAACAAATTTTCCTAATCTTTCTGTTCAAGCGCCATCTAC | 1.4
GATGATTGTTCTCCCAGCTGATGAATTTGGATTTTCGAGTAAACAAATTTTCCTAATCTTTCTGTTCAAGCGCCATCTAC | 0.662
GATGATTGTTCTCCCAGCTGATGAATTTAATTCCTCGAGTAAACAAATTTTCCTAATCTTTCTGTTCAAGCGCCATCTAC | 0.881
GATGATTGTTCTCCCAGCTGATGAATTGCCTAATTCGAGTAAACAAATTTTCCTAATCTTTCTGTTCAAGCGCCATCTAC | 0.591
GATGATTGTTCTCCCAGCTGATGAATTGTTTACGTCGAGTAAACAAATTTTCCTAATCTTTCTGTTCAAGCGCCATCTAC | 7.65
GATGATTGTTCTCCCAGCTGATGAATTGAATAGATCGAGTAAACAAATTTTCCTAATCTTTCTGTTCAAGCGCCATCTAC | 0.257
GATGATTGTTCTCCCAGCTGATGAATTAATCCTATCGAGTAAACAAATTTTCCTAATCTTTCTGTTCAAGCGCCATCTAC | 0.347
GATGATTGTTCTCCCAGCTGATGAATTACGGGGGTCGAGTAAACAAATTTTCCTAATCTTTCTGTTCAAGCGCCATCTAC | 0.593
GATGATTGTTCTCCCAGCTGATGAATTCACTTCCTCGAGTAAACAAATTTTCCTAATCTTTCTGTTCAAGCGCCATCTAC | 0.294
GATGATTGTTCTCCCAGCTGATGAATTTAGGATCTCGAGTAAACAAATTTTCCTAATCTTTCTGTTCAAGCGCCATCTAC | 0.447
GATGATTGTTCTCCCAGCTGATGAATTTCTATACTCGAGTAAACAAATTTTCCTAATCTTTCTGTTCAAGCGCCATCTAC | 0.435
GATGATTGTTCTCCCAGCTGATGAATTGTCGGCCTCGAGTAAACAAATTTTCCTAATCTTTCTGTTCAAGCGCCATCTAC | 0.457
GATGATTGTTCTCCCAGCTGATGAATTCAGAATATCGAGTAAACAAATTTTCCTAATCTTTCTGTTCAAGCGCCATCTAC | 0.391

Sequence | binding signal (RPM ratio (pull-down/input))
GATGATTGTTCTCCCAGCTGATGAATTGTAAGCCTCGAGTAAACAAATTTTCCTAATCTTTCTGTTCAAGCGCCATCTAC | 0.709
GATGATTGTTCTCCCAGCTGATGAATTACTATCTTCGAGTAAACAAATTTTCCTAATCTTTCTGTTCAAGCGCCATCTAC | 0.46
GATGATTGTTCTCCCAGCTGATGAATTTTTGTTCTCGAGTAAACAAATTTTCCTAATCTTTCTGTTCAAGCGCCATCTAC | 0.494
GATGATTGTTCTCCCAGCTGATGAATTCTGCCATTCGAGTAAACAAATTTTCCTAATCTTTCTGTTCAAGCGCCATCTAC | 4.97
GATGATTGTTCTCCCAGCTGATGAATTTCTGTTTTCGAGTAAACAAATTTTCCTAATCTTTCTGTTCAAGCGCCATCTAC | 1.13
GATGATTGTTCTCCCAGCTGATGAATTCTGGTCGTCGAGTAAACAAATTTTCCTAATCTTTCTGTTCAAGCGCCATCTAC | 0.464
GATGATTGTTCTCCCAGCTGATGAATTCTGCGTATCGAGTAAACAAATTTTCCTAATCTTTCTGTTCAAGCGCCATCTAC | 2.61
GATGATTGTTCTCCCAGCTGATGAATTGAAGACCTCGAGTAAACAAATTTTCCTAATCTTTCTGTTCAAGCGCCATCTAC | 0.196
GATGATTGTTCTCCCAGCTGATGAATTCCGGGCGTCGAGTAAACAAATTTTCCTAATCTTTCTGTTCAAGCGCCATCTAC | 0.464
GATGATTGTTCTCCCAGCTGATGAATTGGAAAAATCGAGTAAACAAATTTTCCTAATCTTTCTGTTCAAGCGCCATCTAC | 0.143
GATGATTGTTCTCCCAGCTGATGAATTTCAATTATCGAGTAAACAAATTTTCCTAATCTTTCTGTTCAAGCGCCATCTAC | 1.24
GATGATTGTTCTCCCAGCTGATGAATTGCCGTTCTCGAGTAAACAAATTTTCCTAATCTTTCTGTTCAAGCGCCATCTAC | 0.886
GATGATTGTTCTCCCAGCTGATGAATTATTTTTCTCGAGTAAACAAATTTTCCTAATCTTTCTGTTCAAGCGCCATCTAC | 0.938
GATGATTGTTCTCCCAGCTGATGAATTAACGTCATCGAGTAAACAAATTTTCCTAATCTTTCTGTTCAAGCGCCATCTAC | 0.642
GATGATTGTTCTCCCAGCTGATGAATTACACTTATCGAGTAAACAAATTTTCCTAATCTTTCTGTTCAAGCGCCATCTAC | 1.11
GATGATTGTTCTCCCAGCTGATGAATTAAGCGTTTCGAGTAAACAAATTTTCCTAATCTTTCTGTTCAAGCGCCATCTAC | 3.35
GATGATTGTTCTCCCAGCTGATGAATTATACAACTCGAGTAAACAAATTTTCCTAATCTTTCTGTTCAAGCGCCATCTAC | 0.885
GATGATTGTTCTCCCAGCTGATGAATTTGTATGATCGAGTAAACAAATTTTCCTAATCTTTCTGTTCAAGCGCCATCTAC | 3.84
GATGATTGTTCTCCCAGCTGATGAATTATATGTGTCGAGTAAACAAATTTTCCTAATCTTTCTGTTCAAGCGCCATCTAC | 2.18
GATGATTGTTCTCCCAGCTGATGAATTACGCGGCTCGAGTAAACAAATTTTCCTAATCTTTCTGTTCAAGCGCCATCTAC | 0.65
GATGATTGTTCTCCCAGCTGATGAATTCCCATGGTCGAGTAAACAAATTTTCCTAATCTTTCTGTTCAAGCGCCATCTAC | 0.262

Sequence | binding signal (RPM ratio (pull-down/input))
GATGATTGTTCTCCCAGCTGATGAATTGGCTTAATCGAGTAAACAAATTTTCCTAATCTTTCTGTTCAAGCGCCATCTAC | 0.334
GATGATTGTTCTCCCAGCTGATGAATTCAGTTAGTCGAGTAAACAAATTTTCCTAATCTTTCTGTTCAAGCGCCATCTAC | 1.62
GATGATTGTTCTCCCAGCTGATGAATTTAGACTGTCGAGTAAACAAATTTTCCTAATCTTTCTGTTCAAGCGCCATCTAC | 0.852
GATGATTGTTCTCCCAGCTGATGAATTTAATTTGTCGAGTAAACAAATTTTCCTAATCTTTCTGTTCAAGCGCCATCTAC | 3.39
GATGATTGTTCTCCCAGCTGATGAATTCTCAACCTCGAGTAAACAAATTTTCCTAATCTTTCTGTTCAAGCGCCATCTAC | 0.216
GATGATTGTTCTCCCAGCTGATGAATTCACCTGTTCGAGTAAACAAATTTTCCTAATCTTTCTGTTCAAGCGCCATCTAC | 0.3
GATGATTGTTCTCCCAGCTGATGAATTATCCTCTTCGAGTAAACAAATTTTCCTAATCTTTCTGTTCAAGCGCCATCTAC | 0.291
GATGATTGTTCTCCCAGCTGATGAATTCTCGGAATCGAGTAAACAAATTTTCCTAATCTTTCTGTTCAAGCGCCATCTAC | 0.194
GATGATTGTTCTCCCAGCTGATGAATTGCAAGAGTCGAGTAAACAAATTTTCCTAATCTTTCTGTTCAAGCGCCATCTAC | 0.475
GATGATTGTTCTCCCAGCTGATGAATTAGCGACCTCGAGTAAACAAATTTTCCTAATCTTTCTGTTCAAGCGCCATCTAC | 0.452
GATGATTGTTCTCCCAGCTGATGAATTGACCACGTCGAGTAAACAAATTTTCCTAATCTTTCTGTTCAAGCGCCATCTAC | 0.286
GATGATTGTTCTCCCAGCTGATGAATTGACTGGGTCGAGTAAACAAATTTTCCTAATCTTTCTGTTCAAGCGCCATCTAC | 0.258
GATGATTGTTCTCCCAGCTGATGAATTTCCAGATTCGAGTAAACAAATTTTCCTAATCTTTCTGTTCAAGCGCCATCTAC | 0.205
GATGATTGTTCTCCCAGCTGATGAATTGGGTCGCTCGAGTAAACAAATTTTCCTAATCTTTCTGTTCAAGCGCCATCTAC | 0.326
GATGATTGTTCTCCCAGCTGATGAATTCGGTTCGTCGAGTAAACAAATTTTCCTAATCTTTCTGTTCAAGCGCCATCTAC | 0.926
GATGATTGTTCTCCCAGCTGATGAATTTTTTTCTTCGAGTAAACAAATTTTCCTAATCTTTCTGTTCAAGCGCCATCTAC | 0.286
GATGATTGTTCTCCCAGCTGATGAATTGCTTCTCTCGAGTAAACAAATTTTCCTAATCTTTCTGTTCAAGCGCCATCTAC | 0.525
GATGATTGTTCTCCCAGCTGATGAATTATTGGATTCGAGTAAACAAATTTTCCTAATCTTTCTGTTCAAGCGCCATCTAC | 0.397
GATGATTGTTCTCCCAGCTGATGAATTCTCATTATCGAGTAAACAAATTTTCCTAATCTTTCTGTTCAAGCGCCATCTAC | 0.533
GATGATTGTTCTCCCAGCTGATGAATTGAGGTCATCGAGTAAACAAATTTTCCTAATCTTTCTGTTCAAGCGCCATCTAC | 0.501
GATGATTGTTCTCCCAGCTGATGAATTAGGTAAGTCGAGTAAACAAATTTTCCTAATCTTTCTGTTCAAGCGCCATCTAC | 0.37
